In PubChem BioAssay AID938 (National Center for Advancing Translational Sciences (NCATS), 2007):
Values joined by “and” are separate entries in the source; they are usually repeats but may differ in a detail not shown here. Identical values can stand only once. The whole screen tested about 73,000 compounds, of which about 1,800 (2.5%) were called active. The shares of active, inactive and inconclusive entries below differ from those in the screen. Calls come from the whole dose curve; as a rule, active = well fitted activation curve with a large enough effect; inconclusive = small, poorly fitted or top-dose-only effect; inactive = no such curve, though single readings can be large or run the other way. Where the call is inconclusive, the potency comes from a doubtful curve fit.

assay: qHTS Assay for Agonists of the Thyroid Stimulating Hormone Receptor: Activators of Intracellular cAMP Concentrations in Parental HEK 293; details: parental HEK293 CNG cAMP sensor, membrane potential fluorescence; activation: at 57.1 µM (top of the series) unless noted; note: nearly all actives have a fitted effect of over 55% in size; for activation: % of control where 0% means no effect
Summary of the method: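 Parental HEK 293 cells stably expressing a cAMP-gated CNG channel were loaded with membrane potential dye containing 100 uM RO 20-1724 for 60 min. Compound added for 30 min; depolarization read as fluorescence intensity at 590 nm.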
Potency is the fitted concentration of half-maximal effect; tags give direction and shape of the fitted curve.

| Structure (SMILES) | Potency | activation |
| --- | --- | --- |
| Cc1n[nH]c(C)c1S(=O)(=O)N(CC(=O)Nc1ccc2c(c1)OCCO2)c1ccc(C(C)C)cc1 | inconclusive: 7.94 µM [activator, single point] | – |
| Cc1nc2cnc(N3CCN(C)CC3)nc2n(Cc2cccs2)c1=O | inconclusive: 5.01 µM [activator, partial curve] | – |
| COCCNC(=O)[C@H](C)/C=C(\c1cccnc1)C(NC(=O)OCc1ccccc1)c1ccc(C(=O)OC)cc1 (some centres undefined) | inactive | – |
| CCCCN(C)C(=O)c1coc(=O)c2ccccc12 | inconclusive: 5.01 µM [activator, single point] | – |
| COc1ccc(-c2nn3c(-c4ccc(F)cc4)nnc3s2)cc1 | inconclusive: 31.6 µM [activator, partial curve] | – |
| C[C@@H](CCc1ccc(O)cc1)NCCc1ccc(O)c(O)c1 | inactive and inconclusive: 6.31 µM [activator, single point] | – |
| c1ccc(Cn2nnnc2C(c2cccs2)N2CCCCCC2)cc1 (centres undefined) | active: 25.1 µM | – |
| CCn1cc(Br)c(-c2nc3ccccc3c(=O)n2N)n1 | inconclusive: 39.8 µM [activator, single point] | – |
| O=c1cc(-c2ccccc2)[nH]n1-c1nc2ccccc2[nH]1 | inactive | – |
| O=C(COc1ccccc1)Nc1cccc2nsnc12 | inconclusive: 25.1 µM [activator, single point] | – |
| COc1ccccc1-n1nnnc1S(=O)(=O)Cc1ccc(Cl)cc1 | inconclusive: 15.8 µM [activator, partial curve] | – |
| CCn1c2ccc(CC(=O)O)cc2c2cc(CC(=O)O)ccc21 | inconclusive: 6.31 µM [activator, single point] | – |
| CCCn1c(=O)c2ccccc2n2c(SCCOc3ccc(C)cc3)nnc12 | active: 20 µM | – |
| Cc1ccc2nc(N3CCN(C)CC3)c(C#N)cc2c1 | inconclusive: 25.1 µM [activator, partial curve, poor fit] | – |
| COc1cccc(Nc2ncc3nc(CCc4ccccc4)c(=O)n(C[C@H]4CCCO4)c3n2)c1 | inactive | – |
| CN(C)S(=O)(=O)N(Cc1ccc(Br)cc1)c1ccccc1 | inconclusive: 25.1 µM [activator, single point] | – |
| COC(=O)[C@@H](NC(=O)NC1CCCc2ccccc21)C(C)C (some centres undefined) | inconclusive: 39.8 µM [activator, single point] | – |
| CCOC(=O)N1CCN(C(=O)c2nn(-c3ccc(C)cc3)c(=O)c3c2c2ccccc2n3C)CC1 | inconclusive: 31.6 µM [activator, single point] | – |
| CCCCC(CC)COCC1CO1 (centres undefined) | inactive | – |
| FC(F)Oc1ccccc1C1CC(c2ccc(Br)s2)Nc2ncnn21 (centres undefined) | inconclusive: 15.8 µM [activator, partial curve] | – |
| Cn1c(=O)c(-c2ccc(F)cc2)nc2cnc(N3CCOCC3)nc21 | inconclusive: 10 µM [activator, partial curve] | – |
| Cc1ccc(Cn2c(N3CCCCCC3)nc3c2c(=O)[nH]c(=O)n3C)cc1 | inconclusive: 5.01 µM [activator, single point] | – |
| CCc1ccccc1NC(=O)CSc1nc2c(c(-c3ccco3)c1C#N)CCCC2 | inconclusive: 12.6 µM [activator, partial curve] | – |

| Structure (SMILES) | Potency | activation |
| --- | --- | --- |
| CCn1ncc(C2=NOC(C(=O)Nc3c(C)n(C)n(-c4ccccc4)c3=O)C2)c1C (centres undefined) | inconclusive: 6.31 µM [activator, single point] | – |
| CN1CCN(C2=C(Cl)C(=O)N(Cc3ccccc3)C2=O)CC1 | inactive | – |
| CC(C)[C@H](O)C1=CCCCC1=O | – | inactive: -3.29% [at 11.4 µM] |
| COc1ccc(-c2noc(-c3ccc(Br)o3)n2)cc1OC | inconclusive: 31.6 µM [activator, single point] | – |
| CCOC(=O)N1CCC(NC(=O)c2cc3c(C)nc4ccccc4c3o2)CC1 | inactive | – |
| CC(=O)OC[C@@H]1O[C@@H](Oc2cc(OC(C)=O)c3c(=O)cc(-c4ccc(OC(C)=O)c(OC(C)=O)c4)oc3c2)[C@H](OC(C)=O)[C@H](OC(C)=O)[C@@H]1OC(C)=O | inactive | – |
| Cc1ccc(Cl)cc1NS(=O)(=O)c1c(C)[nH]c(=O)[nH]c1=O | inactive | – |
| Cc1cccc(CNc2nc(-c3ccc4c(c3)OCO4)nc3ccccc23)c1 | inconclusive: 3.16 µM [activator, partial curve] | – |
| CC(C)OC(=O)C(C)(C)Oc1ccc(C(=O)c2ccc(Cl)cc2)cc1 | inconclusive: 15.8 µM [activator, partial curve, poor fit] and inconclusive: 12.6 µM [activator, partial curve] | – |
| CN=Cc1sc2ccccc2c1O | inactive | – |
| COc1cccc(C(=O)Nc2ccc(S(=O)(=O)NCc3ccco3)cc2)c1 | inactive | – |
| COc1ccc(Nc2ccc3c(c2)=NC2(CCCCC2)[N+]=3[O-])cc1 | inactive | – |
| O=c1ccn([C@H]2O[C@H](CO)[C@@H](O)[C@@H]2O)c(=O)[nH]1 | inactive | – |
| COc1ccc(-c2nnn(CC(=O)N(C3CCCC3)C(C)C(=O)NC3CCCC3)n2)cc1OC (centres undefined) | inconclusive: 15.8 µM [activator, partial curve] | – |
| O=C(Cn1nc(-c2ccccc2)c2ccccc2c1=O)Nc1ccccn1 | inconclusive: 39.8 µM [activator, single point] | – |
| Cc1ccc(C(=O)Nc2nnn(C)n2)cc1 | inactive | – |
| O=S(=O)(c1ccccc1)N1CCC2(CCCN(Cc3ccncc3)C2)CC1 | inconclusive: 10 µM [activator, partial curve] | – |
| CCOC(=O)c1c(C2CCN(C(=O)OCC)CC2)nc2ccccn12 | active: 0.316 µM | – |
| O=Nc1ccc2oc(=O)ccc2c1 | inconclusive: 6.31 µM [activator, single point] | – |
| Cc1cc(C)c2ccc(C)[n+]([O-])c2c1O | inactive | – |
| CC1CN(Cc2nc3c(c(=O)n(C)c(=O)n3C)n2CC(=O)c2ccccc2)CC(C)O1 (centres undefined) | inconclusive: 15.8 µM [activator, partial curve] | – |
| COc1ccc(-n2cnc3cc(NCc4cccs4)ccc32)cc1 | inconclusive: 39.8 µM [activator, single point] | – |
| CCOC(=O)C1CCCN(C(=O)CC(C)c2ccccc2)C1 (centres undefined) | inconclusive: 2.51 µM [activator, partial curve] | – |

| Structure (SMILES) | Potency | activation |
| --- | --- | --- |
| Cc1csc(C(C#N)C(=O)c2ccc(S(=O)(=O)N3CCCC3)cc2)n1 (centres undefined) | inconclusive: 5.01 µM [activator, single point] | – |
| COC(=O)N1CCC[C@@]2(CCN(c3ccccc3)C2)C1 | inconclusive: 12.6 µM [activator, partial curve] | – |
| O=C(CSc1nnc(-c2cccnc2)n1Cc1ccco1)c1ccc(Br)cc1 | inconclusive: 12.6 µM [activator, partial curve] | – |
| COc1ccc(NC(=O)CN2CCN(c3ccccc3F)CC2)cc1 | inconclusive: 20 µM [activator, partial curve] | – |
| CC1CCc2ccc(F)cc2N1S(=O)(=O)c1cccs1 (centres undefined) | inconclusive: 25.1 µM [activator, single point] | – |
| CCNc1ncc2ncc(=O)n(CCc3ccccc3)c2n1 | inconclusive: 0.0316 µM [activator, full curve, poor fit] | – |
| CCNc1nc(Oc2ccc(C(=O)OCC)cc2)nc(SC)n1 | inconclusive: 5.01 µM [activator, full curve] | – |
| CCNc1nc(NCC)n2c(SCc3nc4ccccc4c(=O)[nH]3)nnc2n1 | inactive | – |
| COc1ccccc1NC(=O)N(Cc1ccc2c(c1)OCO2)Cc1nc2ccccc2c(=O)[nH]1 | inconclusive: 5.01 µM [activator, single point] | – |
| CC(C)NC(=O)c1ccccc1-c1nc(-c2ccccc2Cl)no1 | inconclusive: 15.8 µM [activator, partial curve] | – |
| Cn1cc(-c2nc3cnc(Oc4ccccc4)nc3n(C3CC3)c2=O)c2ccccc21 | – | inactive: 13.6% [at 2.29 µM] |
| COC(=O)c1cc2sccc2n1CC(=O)Nc1cccc(SC)c1 | active: 25.1 µM | – |
| COc1ccc([C@@H]2OC[C@]3(COC(C)=O)[C@H](C)C=C(C)[C@@H]2[C@H]3C)cc1 | inconclusive: 31.6 µM [activator, partial curve] | – |
| Cc1noc(C(=O)Nc2ccc3c(c2)OCO3)c1Cl | inactive | – |
| CC(=O)c1cc2c(cc1NC(=O)c1ccc(-n3nc(C)cc3C)cc1)OCO2 | inconclusive: 39.8 µM [activator, single point] | – |
| O=C(CSc1nnc(-c2ccco2)o1)N1c2ccccc2CCc2ccccc21 | inconclusive: 39.8 µM [activator, single point] | – |
| CCOc1ccccc1NC(=O)CSc1nnnn1Cc1ccccc1 | inconclusive: 31.6 µM [activator, single point] | – |
| O=C(CSc1nc(O)cc(=O)[nH]1)N1CCCc2ccccc21 | inconclusive: 31.6 µM [activator, single point] | – |
| c1cc(-c2noc(CCC3CCCC3)n2)ccn1 | inconclusive: 25.1 µM [activator, single point] | – |
| Cc1cc(C(=O)CSc2nc3ccccc3o2)c(C)n1C1CC1 | active: 15.8 µM | – |
| CC(C)COc1cccc(C(=O)Nc2ccc(S(=O)(=O)N3CCOCC3)cc2)c1 | inconclusive: 25.1 µM [activator, single point] | – |
| CN1CCCCc2c1[nH]c1ccccc1c2=O | inconclusive: 25.1 µM [activator, single point] | – |
| COC(=O)[C@@]1(Cc2ccccc2)[C@H]2c3cc(C(=O)N4CCCC4)n(CCSCCO)c3C[C@H]2CN1C(=O)c1ccccc1 | inconclusive: 2.51 µM [activator, full curve, poor fit] | – |
